Data on 56 compounds can be found in publication PMC4336329 (PLoS ONE, 2015).

In all, about 310,000 compounds went through this assay and about 14,000 (4.5%) showed an effect of 50% or more. The effect is printed as a negative number. Some of the results follow.
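Also: peak tail current of the secondary pulse compared with the same well before compound.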

human ether-à-go-go-related gene (hERG) potassium channel, sequence (Q12809 whole entry, looked up): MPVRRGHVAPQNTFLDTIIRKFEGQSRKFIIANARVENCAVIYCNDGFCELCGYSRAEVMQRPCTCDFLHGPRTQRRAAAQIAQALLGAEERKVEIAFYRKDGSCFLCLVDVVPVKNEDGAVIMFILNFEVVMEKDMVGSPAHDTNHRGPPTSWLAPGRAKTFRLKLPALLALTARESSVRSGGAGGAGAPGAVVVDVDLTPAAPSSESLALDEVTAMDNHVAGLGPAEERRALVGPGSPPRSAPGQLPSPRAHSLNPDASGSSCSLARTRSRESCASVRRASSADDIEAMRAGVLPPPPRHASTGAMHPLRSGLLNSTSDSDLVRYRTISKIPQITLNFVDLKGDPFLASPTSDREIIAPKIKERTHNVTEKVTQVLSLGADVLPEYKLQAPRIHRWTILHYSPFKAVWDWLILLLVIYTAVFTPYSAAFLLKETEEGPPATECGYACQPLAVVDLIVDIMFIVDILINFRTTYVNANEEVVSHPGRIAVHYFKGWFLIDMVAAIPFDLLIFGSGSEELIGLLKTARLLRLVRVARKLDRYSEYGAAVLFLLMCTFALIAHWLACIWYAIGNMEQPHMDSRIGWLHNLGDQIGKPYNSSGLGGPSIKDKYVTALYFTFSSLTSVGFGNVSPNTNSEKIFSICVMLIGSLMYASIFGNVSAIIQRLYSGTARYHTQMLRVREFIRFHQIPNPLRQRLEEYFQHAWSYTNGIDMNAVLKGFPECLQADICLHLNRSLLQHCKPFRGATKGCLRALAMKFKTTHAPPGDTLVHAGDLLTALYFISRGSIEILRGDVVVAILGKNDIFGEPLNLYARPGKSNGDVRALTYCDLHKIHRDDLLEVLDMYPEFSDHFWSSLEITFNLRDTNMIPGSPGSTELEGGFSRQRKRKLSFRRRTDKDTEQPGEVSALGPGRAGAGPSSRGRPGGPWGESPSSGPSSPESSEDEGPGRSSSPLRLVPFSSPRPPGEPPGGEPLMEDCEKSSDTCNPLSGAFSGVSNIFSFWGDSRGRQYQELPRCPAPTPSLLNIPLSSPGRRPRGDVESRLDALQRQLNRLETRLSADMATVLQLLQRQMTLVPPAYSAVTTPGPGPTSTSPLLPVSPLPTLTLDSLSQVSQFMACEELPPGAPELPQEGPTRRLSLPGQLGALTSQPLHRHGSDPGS

The assay concerns the target human ether-à-go-go-related gene (hERG) potassium channel (human, UniProt Q12809). Nature of the assay: primary screen, population patch clamp on CHO cells stably expressing hERG.
As for `COc1ccccc1NC(=O)CNC(=O)Cn1c(C)cc2ccccc2c1=O`, the “hERG current change (%, negative = inhibition) at 10uM” value stood at 20.5%.
Consider `CCOC(=O)CCC(=O)N1CCOCCOCCN(C(=O)CCC(=O)OCC)CCOCC1`, for which the “hERG current change (%, negative = inhibition) at 10uM” value is given as -7.63%.
For `Cc1nccn1CCCNC(=O)C1CCC(=O)N(Cc2ccccc2F)C1` (centres unmarked), the “hERG current change (%, negative = inhibition) at 10uM” value is listed as -1.67%.
Take `CCOC(=O)Cn1c(=O)c2c(nc(N3CCCCC3)n2Cc2ccccc2)n(C)c1=O`: the “hERG current change (%, negative = inhibition) at 10uM” value was -40.4%.
On to `COc1cc(C=O)ccc1OCC(=O)Nc1ccccc1N1CCOCC1`, for which the “hERG current change (%, negative = inhibition) at 10uM” value is on record as -1.22%.
As to `COc1ccc(/C(N)=N/OC(=O)CSc2ccccc2)cc1`, the “hERG current change (%, negative = inhibition) at 10uM” value is reported as -2.41%.
The figure for `COC(=O)c1sc(=S)n(-c2ccccc2)c1N` is 12.3%; for `COc1ccc(Cc2nnc(NC(=O)c3cccs3)s2)cc1OC` it is 9.26%.
In the case of `c1ccc(N2CCN(CC3CCCCC3)CC2)cc1`, the “hERG current change (%, negative = inhibition) at 10uM” value came out at 9.61%.
Consider `O=C(NCc1ccccc1)C(c1ccccc1)N(C(=O)c1csnn1)c1ccc(F)cc1` (centres unmarked), for which the “hERG current change (%, negative = inhibition) at 10uM” value was determined as 10.7%.
As for `COc1cccc(CN2CCC(C(=O)N3CCN(c4ccccc4F)CC3)CC2)c1`, the “hERG current change (%, negative = inhibition) at 10uM” value is -53%.
As to `Cc1nnc(SCc2ccc(CC(=O)O)cc2)o1`, the “hERG current change (%, negative = inhibition) at 10uM” value turned out to be 12.1%.
Turning to `CC(=O)N1CCN(C(=O)C2(NC(=O)Nc3cccc(F)c3)CCCCC2)CC1`, the “hERG current change (%, negative = inhibition) at 10uM” value is listed as 18.3%.
In the case of `CSCCC(NC(=O)c1ccccc1Cl)C(=O)NNC(=O)c1ccncc1` (centres unmarked), the “hERG current change (%, negative = inhibition) at 10uM” value was -10.5%.
Consider `CC(C)c1ccc(NC2CCCN(C(=O)c3cscn3)C2)cc1` (centres unmarked), for which the “hERG current change (%, negative = inhibition) at 10uM” value came to 3.84%.
Consider `COc1ccc(-c2csc(N3CCC(C(N)=O)(N4CCCCC4)CC3)n2)cc1`, for which the “hERG current change (%, negative = inhibition) at 10uM” value is listed as -1.82%.
For `N=c1c(C(=O)NCC2CCCO2)cc2c(=O)n3ccccc3nc2n1Cc1cccnc1` (centres unmarked), the “hERG current change (%, negative = inhibition) at 10uM” value is -72.9%.
For `COC(OC)C1(C)C(C#N)=C(N)Oc2c1c(=O)oc1ccccc21` (centres unmarked) the value was 8.74%; for `Fc1cc(Br)ccc1NC(=S)NCCc1ccccc1`, -1.43%; for `O=C(CNS(=O)(=O)c1cccc(C(F)(F)F)c1)Nc1ccccc1F`, -5.3%.
Take `CC1(C)CC(=O)N(CC(=O)O)c2ccccc2S1(=O)=O`: the “hERG current change (%, negative = inhibition) at 10uM” value came to 3.52%.
For `COc1ccc(CN2CCN(Cc3cn(C)nc3-c3ccccc3)CC2CCO)c(C)c1C` (centres unmarked) the value was -72.4%; for `Cc1coc2c1c(C)cc1oc(=O)c(Cc3ccccc3)c(C)c12`, 17.5%; for `COc1ccc(NC(=O)c2ccco2)cn1`, 18.8%.
For `Cc1cc(NC(=O)c2ccc(C)c(C)c2)no1`, the “hERG current change (%, negative = inhibition) at 10uM” value is reported as 11.8%.
Take `CC1=C(C(=O)OCc2ccccc2)C(c2ccccc2)NC(=O)N1CCCCCC(=O)O` (centres unmarked): the “hERG current change (%, negative = inhibition) at 10uM” value is given as -13.7%.
In the case of `Cc1ccc(N2CCN(C(=O)Nc3cccc([N+](=O)[O-])c3)CC2C)cc1` (centres unmarked), the “hERG current change (%, negative = inhibition) at 10uM” value is -78.3%.
For the compound `CCc1nnc(SCC(=O)Nc2nccs2)n1CC`, the “hERG current change (%, negative = inhibition) at 10uM” value came out at 18%.
As for `c1ccc(Sc2ncnc3c2oc2ccccc23)cc1`, the “hERG current change (%, negative = inhibition) at 10uM” value amounted to 14.5%.
Regarding `O=S(=O)(NCCc1ccccc1)c1ccc(F)cc1`, the “hERG current change (%, negative = inhibition) at 10uM” value came to 4.55%.
Regarding `CCn1c(-c2ccccc2Cl)nn(CC(=O)Nc2ccccc2C)c1=S`, the “hERG current change (%, negative = inhibition) at 10uM” value turned out to be 0.806%.
For `CCS(=O)(=O)C(=C(Nc1ccc(OC)cc1)Nc1ccc(OC)cc1)S(=O)(=O)CC` the value was -5.64%; for `Cc1oc(-c2ccccc2F)nc1CS(=O)(=O)CC(=O)N1CCc2ccccc21`, 12.4%; for `CCOC(=O)c1ccccc1N/C=C1\CCCC1=O`, -22.8%.
For `COc1ccc(-c2csc3ncnc(N4CCN(S(=O)(=O)c5ccc(C(C)=O)cc5)CC4)c23)cc1` the value was -17%.
For `CC(C)c1ccc2c(c1)CCC1C(C)(CN)CCCC21C.O=C(O)c1ccccc1` (centres unmarked), the “hERG current change (%, negative = inhibition) at 10uM” value came to 4.7%.
`CCOc1ccc(C(=O)CCC(=O)Nc2ccc(C)cn2)cc1`: the “hERG current change (%, negative = inhibition) at 10uM” value is listed as -22.2%.
In the case of `OCCC1CN(Cc2ccc3cc(Cl)ccc3n2)CCN1Cc1ccsc1` (centres unmarked), the “hERG current change (%, negative = inhibition) at 10uM” value is given as -65%.
Consider `NC(=O)C1CC(=O)N(c2ccc(OCc3c(Cl)cccc3Cl)cc2)C1` (centres unmarked), for which the “hERG current change (%, negative = inhibition) at 10uM” value was determined as 15.9%.
As to `COc1cc(C(=O)NCCOc2cccc3cccnc23)cc(OC)c1OC`, the “hERG current change (%, negative = inhibition) at 10uM” value is on record as -5.99%.
`Oc1ccccc1C1=Nc2ccccc2N=C(c2cccs2)C1`: the “hERG current change (%, negative = inhibition) at 10uM” value was 23.6%.
As to `Cn1cnc(S(=O)(=O)N2CCN(c3cccc(Cl)c3)CC2)c1`, the “hERG current change (%, negative = inhibition) at 10uM” value came out at 9.76%.
The figure for `C=CCn1c(CNC(=O)c2ccccc2F)nnc1SCc1nc2ccccc2c(=O)[nH]1` is -1.68%; for `O=C(CN1CCCN(S(=O)(=O)c2ccc(F)cc2)CC1)Nc1cccc(F)c1` it is -50.3%; for `COc1cc(-c2nnc(CSc3nnc(N)s3)o2)cc(OC)c1OC` it is -2.43%.
As for `Cc1nn(Cc2ccc(F)cc2)c(C)c1NC(=O)c1noc2c1CCc1ccccc1-2`, the “hERG current change (%, negative = inhibition) at 10uM” value was -10%.
With `COc1ccc(C)c(-n2c(=O)n(Cc3ccccc3)c(=O)c3[nH]cnc32)c1`, the “hERG current change (%, negative = inhibition) at 10uM” value came out at 8.32%.
Turning to `CCC(=O)Nc1ccc(C(=O)CSc2nnc(CNc3ccc(Cl)cc3)o2)cc1OC`, the “hERG current change (%, negative = inhibition) at 10uM” value amounted to 12.5%.
On to `O=C(NC1CCCC1)C(c1ccncc1)N(C(=O)c1ccco1)c1ccc(Cl)cc1` (centres unmarked), for which the “hERG current change (%, negative = inhibition) at 10uM” value is -4.59%.
As to `Cc1ccc(Oc2ccc(-c3nc(N)nc(N)n3)cc2)cc1`, the “hERG current change (%, negative = inhibition) at 10uM” value turned out to be 31.6%.
On to `CC(Sc1nnc(C(C)N(C)C)n1-c1ccc(Cl)cc1)C(=O)Nc1ccc2c(c1)OCO2` (centres unmarked), for which the “hERG current change (%, negative = inhibition) at 10uM” value is recorded as -2.55%.
Consider `CC1CC(C)CN(C(=O)COC(=O)c2cccc([N+](=O)[O-])c2)C1` (centres unmarked), for which the “hERG current change (%, negative = inhibition) at 10uM” value is -1.37%.
`COc1ccc(/C=N/NC(=O)c2cccnc2)cc1COc1ccc([N+](=O)[O-])cc1`: the “hERG current change (%, negative = inhibition) at 10uM” value is on record as -28.5%.
Take `Cc1cccc(C)c1NC(=O)CSc1nnc(-c2ccccc2)n1Cc1ccc2c(c1)OCO2`: the “hERG current change (%, negative = inhibition) at 10uM” value was -24%.
As for `CCOC(=O)c1cnc(-c2ccccc2)[nH]c1=O`, the “hERG current change (%, negative = inhibition) at 10uM” value was 15.6%.
For `O=C(CN1CCCCC1)Nc1cc(S(=O)(=O)N2CCOCC2)ccc1N1CCCC1` the value was 6.08%.
